# Assay results: the supplement of paper PMC12217912
# The list shows a part of the results. The full chains were built here from the parent and the listed change. Values near 0.05 are background.
# B1: TEV protease; numbered along this chain (parent)
# chain: MGESLFKGPRDYNPISSSICHLTNESDGHTTSLYGIGFGPFIITNKHLFRRNNGTLVVQSLHGVFKVKDTTTLQQHLVDGRDMIIIRMPKDFPPFPQKLKFREPQREERICLVTTNFQTKSMSSMVSDTSCTFPSGDGIFWKHWIQTKDGQCGSPLVSTRDGFIVGIHSASNFTNTNNYFTSVPKNFMELLTNQEAQQWVSGWRLNADSVLWGGHKVFMVKPEEPFQPVKEATQL
# Variants of: B1
# Test: raw area under fraction-flipped curve 0-4 h after induction (AUC4h, not background-subtracted), DNA-recorder readout of cleavage of the substrate (dimensionless); higher = more cleavage of the substrate by the protease variant
# Details: temperature: 34 °C; time window: 0-4 h after rhamnose induction
# Method: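 In vivo DNA recorder in E. coli TOP10(DE3) ΔrhaA at 34 °C. Each TEVp single-site mutant (parent TEVp 0) is paired with a single-site variant of the 7-mer TEVs (canonical ENLYFQ|S). The substrate sits between flexible linkers in a Bxb1-sfGFP-TEVs-SsrA fusion, so cleavage stabilises Bxb1 and speeds flipping of a recombination array, read by NGS. The value is the raw area under the fraction-flipped curve over 0-4 h after rhamnose induction (AUC4h), with ≥20 reads per time point. It is not background-subtracted; inactive controls average about 0.047.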
# 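Also: Bxb1 expression induced with 0.2% (w/v) L-rhamnose at OD600 near 0.5, cultures sampled hourly, flipped fraction per protease–substrate barcode pair counted by paired-end Illumina sequencing.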
Variant,area with substrate EALYFQS,area with substrate ECLYFQS,area with substrate EELYFQS,area with substrate EGLYFQS,area with substrate EILYFQS,area with substrate EKLYFQS,area with substrate ELLYFQS,area with substrate EMLYFQS,area with substrate EPLYFQS,area with substrate EQLYFQS,area with substrate EVLYFQS,area with substrate EWLYFQS,area with substrate EDLYFQS,area with substrate EHLYFQS,area with substrate ERLYFQS,area with substrate ESLYFQS,area with substrate EYLYFQS,area with substrate ETLYFQS,area with substrate EFLYFQS
MGESLFKGPRDYNPISSSICHLTNESDGHTTSLYGIGFGPFIITNKHLFDRNNGTLVVQSLHGVFKVKDTTTLQQHLVDGRDMIIIRMPKDFPPFPQKLKFREPQREERICLVTTNFQTKSMSSMVSDTSCTFPSGDGIFWKHWIQTKDGQCGSPLVSTRDGFIVGIHSASNFTNTNNYFTSVPKNFMELLTNQEAQQWVSGWRLNADSVLWGGHKVFMVKPEEPFQPVKEATQL [R50D],0.159,0.111,0.117,0.0668,0.107,0.101,0.076,0.129,0.119,0.114,0.0962,0.0888,,,,,,,
MGESLFKGPRDYNPISSSICHLTNESDGHTTSLYGIGFGPFIITNKHLFRRNNGTLVVQSLHGVFKVKDTTTLQQHLVDGRDMIIIRMPKDFPPFPQKLKFREPQREERICLVTTNHQTKSMSSMVSDTSCTFPSGDGIFWKHWIQTKDGQCGSPLVSTRDGFIVGIHSASNFTNTNNYFTSVPKNFMELLTNQEAQQWVSGWRLNADSVLWGGHKVFMVKPEEPFQPVKEATQL [F117H],0.111,0.11,0.133,,0.109,0.103,0.0947,0.101,0.131,0.129,0.103,,0.165,0.113,0.115,0.116,0.113,,
MGESLFKGPRDYNPISSSICHLTNESDGHTTSLYGIGFGPFIITNKHLFRRNNGTLVVQSLHGVFKVKDTTTLQQHLVDGRDMIIIRMPKDFPPFPQKLKFREPQREERICLVTTNFQTKSMSSVVSDTSCTFPSGDGIFWKHWIQTKDGQCGSPLVSTRDGFIVGIHSASNFTNTNNYFTSVPKNFMELLTNQEAQQWVSGWRLNADSVLWGGHKVFMVKPEEPFQPVKEATQL [M125V],0.13,,,,,0.118,0.0903,0.121,0.134,0.138,0.11,0.0824,0.0975,0.144,0.122,0.132,,0.105,
MGESLFKGPRDYNPISSSICHLTNESDGHTTSLYGIGFGPFIITNKHLFRRNNGTVVVQSLHGVFKVKDTTTLQQHLVDGRDMIIIRMPKDFPPFPQKLKFREPQREERICLVTTNFQTKSMSSMVSDTSCTFPSGDGIFWKHWIQTKDGQCGSPLVSTRDGFIVGIHSASNFTNTNNYFTSVPKNFMELLTNQEAQQWVSGWRLNADSVLWGGHKVFMVKPEEPFQPVKEATQL [L56V],0.0793,,,0.0832,0.0832,0.0876,0.0838,0.0875,0.0968,0.0938,,0.0718,0.107,0.0661,0.0769,0.0965,,0.0889,
MGESLFKGPRDYNPISSSICHLTNESDGHTTSLYGIGFGPFIITIKHLFRRNNGTLVVQSLHGVFKVKDTTTLQQHLVDGRDMIIIRMPKDFPPFPQKLKFREPQREERICLVTTNFQTKSMSSMVSDTSCTFPSGDGIFWKHWIQTKDGQCGSPLVSTRDGFIVGIHSASNFTNTNNYFTSVPKNFMELLTNQEAQQWVSGWRLNADSVLWGGHKVFMVKPEEPFQPVKEATQL [N45I],0.068,0.0533,0.0588,0.0636,0.055,0.0441,0.0555,,0.0539,0.064,,,,0.0625,0.0627,0.0492,,,
MGESLFKGPRDYNCISSSICHLTNESDGHTTSLYGIGFGPFIITNKHLFRRNNGTLVVQSLHGVFKVKDTTTLQQHLVDGRDMIIIRMPKDFPPFPQKLKFREPQREERICLVTTNFQTKSMSSMVSDTSCTFPSGDGIFWKHWIQTKDGQCGSPLVSTRDGFIVGIHSASNFTNTNNYFTSVPKNFMELLTNQEAQQWVSGWRLNADSVLWGGHKVFMVKPEEPFQPVKEATQL [P14C],0.106,0.0898,0.0851,0.0934,0.0911,0.0932,,0.0959,0.106,0.106,0.0917,0.099,0.105,0.0912,0.0938,0.106,0.0777,0.124,
MGESLFKGPRDYNPISSSIMHLTNESDGHTTSLYGIGFGPFIITNKHLFRRNNGTLVVQSLHGVFKVKDTTTLQQHLVDGRDMIIIRMPKDFPPFPQKLKFREPQREERICLVTTNFQTKSMSSMVSDTSCTFPSGDGIFWKHWIQTKDGQCGSPLVSTRDGFIVGIHSASNFTNTNNYFTSVPKNFMELLTNQEAQQWVSGWRLNADSVLWGGHKVFMVKPEEPFQPVKEATQL [C20M],0.0983,,0.146,0.0955,0.121,0.0962,,0.0779,,0.105,0.0991,,0.126,,0.101,0.0901,0.0879,,0.0806
MGESLFKGPRDYNPISSSICHLTNESDGHTTSLYGIGFGPFIITNKHLFRRNNGTLVVQSLHGVFKVKDTTTLQQHLVDGRDMIIIRMPKDFPPFPQKLKFREPQREERICLVTTNFQTKSMSSMVSDTSCTFPSGDGIFWEHWIQTKDGQCGSPLVSTRDGFIVGIHSASNFTNTNNYFTSVPKNFMELLTNQEAQQWVSGWRLNADSVLWGGHKVFMVKPEEPFQPVKEATQL [K142E],0.0935,0.0856,0.0897,0.0737,0.0751,0.0774,0.0824,0.107,0.112,0.0808,0.0683,0.0908,0.14,0.0975,0.0928,0.107,,0.0835,
MGESLFKGPRDYNPISSSICHLTNESDGHTTSLYGIGFGPFIITNKHLFRRNNGTLVVQLLHGVFKVKDTTTLQQHLVDGRDMIIIRMPKDFPPFPQKLKFREPQREERICLVTTNFQTKSMSSMVSDTSCTFPSGDGIFWKHWIQTKDGQCGSPLVSTRDGFIVGIHSASNFTNTNNYFTSVPKNFMELLTNQEAQQWVSGWRLNADSVLWGGHKVFMVKPEEPFQPVKEATQL [S60L],0.106,0.0665,0.115,0.0783,0.111,0.0857,0.0806,0.0849,,0.111,0.0924,0.0833,0.126,0.0756,0.0765,0.0939,0.095,0.0824,
